# Measurements as given in PubChem BioAssay AID1159580 (chemical genetic matrix, 2015).
# Hit rate of the full screen: of about 5,500 compounds, about 2,000 (36%) were called active. Cut-off read from the data, not from the text of the source: active = normalized growth mostly below about 0.91 (no sharp cut-off); inconclusive = no clear call, values can overlap the other calls; inactive = mostly above about 0.92. The inconclusive results got no clear call from the source. Some compounds were tested as several samples or in several runs, with calls that do not always agree.
# Assay: chemical genetic growth profiling, strain panel (AID 1159580);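 note: tested at 20 µM; growth read once vehicle control cultures reached saturation at 30 °C; 1 = growth at the plate median or of vehicle wells; lower values mean less growth of the strain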
# Conditions: S. cerevisiae deletion strains, growth OD
# [1] = locus YJR043C, strain POL32, stronger effect = lower value
# [2] = locus YKL009W, strain mrt4, stronger effect = lower value
# [3] = locus YKL085W, strain MDH1 (second series), stronger effect = lower value
# [4] = locus YKL085W, strain MDH1, stronger effect = lower value
# [5] = locus YGL086W, strain mad1, stronger effect = lower value
# [6] = locus YAL013W, strain DEP1, stronger effect = lower value
# [7] = locus YMR263W, strain SAP30, stronger effect = lower value
# [8] = locus YKR026C, strain gcn3, stronger effect = lower value
smiles,measurement,setting,value
CC(C)(C)OC(=O)C(C)(C)S(=O)(=O)c1ccc(Cl)cc1,normalized growth,[1],inconclusive: 0.919 [sensitive]
CC(=O)OCC1(C)CCC2(C)CCC3(C)C4=CCc5c(cc(OC(C)=O)c(OC(C)=O)c5C)C4(C)CCC3(C)C2C1 (stereo not drawn),normalized growth,[2],inconclusive: 1.39 [resistant]
same,normalized growth,[3],inconclusive: 1.08 [resistant]
same,normalized growth,[4],inconclusive: 1.08 [resistant]
S=C1NC2(CCCCC2)NN1c1ccccc1,normalized growth,"locus YBR229C, strain ROT2, stronger effect = lower value",inconclusive: 0.92 [sensitive]
N/C(=N/OC(=O)Nc1ccccc1)c1ccc(C2SCCS2)cc1,normalized growth,"locus YLR058C, strain SHM2 (second series), stronger effect = lower value",inconclusive: 0.921 [sensitive]
same,normalized growth,"locus YPL241C, strain CIN2, stronger effect = lower value",inconclusive: 0.815 [sensitive]
COc1cc(O)c2c(=O)cc(-c3ccc(OC)c(-c4c(O)cc(O)c5c(=O)cc(-c6ccc(O)cc6)oc45)c3)oc2c1,normalized growth,[5],inconclusive: 1.08 [resistant]
COc1cc2c(cc1OC)C1C(=O)c3c(O)cc4c(c3OC1CO2)C=CC(C)(C)O4 (stereo not drawn),normalized growth,[2],inconclusive: 1.75 [resistant]
COc1c(Br)cc([N+](=O)[O-])c(OC)c1C(N)=O,normalized growth,[6],inconclusive: 0.922 [sensitive]
COc1ccc(-c2coc3cc(O)ccc3c2=O)cc1,normalized growth,"locus YLR370C, strain arc18, stronger effect = lower value",inconclusive: 0.806 [sensitive]
CC(C)C(C)/C=C/C(C)C1CCC2C3=CC=C4CC(O)CCC4(C)C3CCC21C (stereo not drawn),normalized growth,"locus YMR129W, stronger effect = lower value",inconclusive: 1.12 [resistant]
CC(C)(C)C1=NN(c2ccccc2)C(=O)C1,normalized growth,[7],inconclusive: 0.891 [sensitive]
CC(=O)O[C@H]1CC[C@]2(C)C3CC[C@@]4(C)C(CC5O[C@@]6(CCC(C)CO6)[C@@H](C)C54)C3CC[C@@H]2C1 (stereo partly drawn),normalized growth,[5],inconclusive: 1.09 [resistant]
same,normalized growth,[3],inconclusive: 1.12 [resistant]
same,normalized growth,[4],inconclusive: 1.12 [resistant]
NC(N)=Nc1nc(CSCCC(N)=NS(N)(=O)=O)cs1,normalized growth,"locus YGR135W, strain pre9, stronger effect = lower value",inconclusive: 1.16 [resistant]
COc1ccc2c(c1)[C@@]1(C)CCC(=O)C[C@H]1CC2,normalized growth,"locus YGL167C, strain pmr1, stronger effect = lower value",inconclusive: 0.913 [sensitive]
same,normalized growth,"locus YNL209W, strain ssb2, stronger effect = lower value",inconclusive: 0.919 [sensitive]
NNC(=O)c1ccccc1O,normalized growth,[6],inconclusive: 0.896 [sensitive]
O=C1OC(c2ccc(O)cc2)(c2ccc(O)cc2)c2ccccc21,normalized growth,[8],inconclusive: 1.24 [resistant]
same,normalized growth,"locus YNL248C, strain rpa49, stronger effect = lower value",inconclusive: 0.87 [sensitive]
CCCc1ncc(C[n+]2ccccc2C)c(N)n1,normalized growth,[8],inconclusive: 1.09 [resistant]
O=C(Nc1cc(Cl)cc(Cl)c1)Nc1cc(-c2ccco2)[nH]n1,normalized growth,"locus YAR019C, strain CDC15, stronger effect = lower value",inconclusive: 0.662 [sensitive]
same,normalized growth,"locus YDL101C, strain DUN1, stronger effect = lower value",inconclusive: 0.625 [sensitive]
same,normalized growth,"locus YFL009W, strain cdc4, stronger effect = lower value",inconclusive: 0.617 [sensitive]
same,normalized growth,"locus YKL193C, strain SDS22, stronger effect = lower value",inconclusive: 0.813 [sensitive]
same,normalized growth,"locus YOL078W, strain AVO1, stronger effect = lower value",inconclusive: 0.552 [sensitive]
same,normalized growth,"strain TSCII, stronger effect = lower value",inconclusive: 0.664 [sensitive]
Cc1ccc(C(=O)c2ccc(CC(=O)O)n2C)cc1,normalized growth,"locus YBR171W, strain sec66, stronger effect = lower value",inconclusive: 0.894 [sensitive]
Cc1cc(C)c2cc(C(=O)NCCNc3ccc(C(F)(F)F)cn3)[nH]c2c1,normalized growth,"locus YKL101W, strain HSL1, stronger effect = lower value",inconclusive: 0.678 [sensitive]
CC(=O)c1ccc(-c2cccs2)s1,normalized growth,[1],inconclusive: 0.911 [sensitive]
C[C@H](CCC(=O)O)[C@H]1CCC2C3C(=O)CC4CC(=O)CC[C@]4(C)C3CC(=O)[C@@]21C (stereo partly drawn),normalized growth,"locus YKR091W, strain srl3, stronger effect = lower value",inconclusive: 0.839 [sensitive]
NC(=S)CSc1ccccc1,normalized growth,[7],inconclusive: 0.859 [sensitive]
COC(=O)C1=C(Nc2ccc(Cl)cc2)CSC1,normalized growth,[1],inconclusive: 0.914 [sensitive]
CN(C)CCCN1c2ccccc2Sc2ccc(C(F)(F)F)cc21,normalized growth,"locus YMR231W, strain pep5, stronger effect = lower value",inconclusive: 0.873 [sensitive]
CC(=O)c1c(O)c(C)c(O)c2c1oc1c(C(C)=O)c(O)c(C)c(O)c12,normalized growth,"locus YDL185W, strain tfp1, stronger effect = lower value",inconclusive: 0.789 [sensitive]
CC(C)(C)c1ccc(C(O)CCCN2CCC(C(O)(c3ccccc3)c3ccccc3)CC2)cc1 (stereo not drawn),normalized growth,"locus YNL224C, strain SQS1, stronger effect = lower value",inconclusive: 1.08 [resistant]
